Data published in the supplement of paper PMC8728848.
Some of the results follow.

Tests used:
Experiment in all cases: glycan array binding signal (z-score within array); higher = stronger binding
Details in all cases: glycan notation: IUPAC condensed, linker removed
Fuc(a1-2)Gal = biological target: Fuc(a1-2)Gal
Outline: (§1)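 Glycan array data came from 3228 arrays in the Consortium for Functional Glycomics database, and only arrays with an available protein sequence were kept. Glycan names were put into IUPAC-condensed notation, and columns mapping to the same glycan were averaged. The binding signal is a within-array Z-score, averaged across arrays of one protein sequence run at different concentrations or buffers and across linkers. A negative Z-score can be read as non-binding.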

Fuc(a1-2)Gal(b1-3)GalNAc = biological target: Fuc(a1-2)Gal(b1-3)GalNAc
Outline: as §1

[1] = biological target: Fuc(a1-2)Gal(b1-3)GalNAc(a1-3)[Fuc(a1-2)]Gal(b1-4)Glc
Outline: as §1

[2] = biological target: Fuc(a1-2)Gal(b1-3)GalNAc(a1-3)[Fuc(a1-2)]Gal(b1-4)GlcNAc
Outline: as §1

[3] = biological target: Fuc(a1-2)Gal(b1-3)GalNAc(b1-3)Gal
Outline: as §1

[4] = biological target: Fuc(a1-2)Gal(b1-3)GalNAc(b1-3)Gal(a1-4)Gal(b1-4)Glc
Outline: as §1

[5] = biological target: Fuc(a1-2)Gal(b1-3)GalNAc(b1-3)Gal(b1-4)Glc
Outline: as §1

[6] = biological target: Fuc(a1-2)Gal(b1-3)GalNAc(b1-4)[Neu5Ac(a2-3)]Gal(b1-4)Glc
Outline: as §1

Fuc(a1-2)Gal(b1-3)GlcNAc = biological target: Fuc(a1-2)Gal(b1-3)GlcNAc
Outline: as §1

[7] = biological target: Fuc(a1-2)Gal(b1-3)GlcNAc(b1-2)Man(a1-3)[Fuc(a1-2)Gal(b1-3)GlcNAc(b1-2)Man(a1-6)]Man(b1-4)GlcNAc(b1-4)GlcNAc
Outline: as §1

[8] = biological target: Fuc(a1-2)Gal(b1-3)GlcNAc(b1-2)Man(a1-3)[Fuc(a1-2)Gal(b1-3)GlcNAc(b1-2)Man(a1-6)]Man(b1-4)GlcNAc(b1-4)[Fuc(a1-6)]GlcNAc
Outline: as §1

[9] = biological target: Fuc(a1-2)Gal(b1-3)GlcNAc(b1-3)Gal(b1-4)Glc
Outline: as §1

[10] = biological target: Fuc(a1-2)Gal(b1-3)GlcNAc(b1-3)GalNAc
Outline: as §1

[11] = biological target: Fuc(a1-2)Gal(b1-3)GlcNAc(b1-3)[Fuc(a1-2)Gal(b1-3)GlcNAc(b1-6)]GalNAc
Outline: as §1

[12] = biological target: Fuc(a1-2)Gal(b1-3)GlcNAc(b1-3)[Gal(b1-4)GlcNAc(b1-6)]Gal(b1-4)Glc
Outline: as §1

[13] = biological target: Fuc(a1-2)Gal(b1-3)GlcNAc(b1-3)[Neu5Ac(a2-6)Gal(b1-4)GlcNAc(b1-6)]Gal(b1-4)Glc
Outline: as §1

[14] = biological target: Fuc(a1-2)Gal(b1-3)GlcNAc6S
Outline: as §1

[15] = biological target: Fuc(a1-2)Gal(b1-3)[Fuc(a1-4)]GlcNAc
Outline: as §1

[16] = biological target: Fuc(a1-2)Gal(b1-3)[Fuc(a1-4)]GlcNAc(b1-2)Man(a1-3)[Fuc(a1-2)Gal(b1-3)[Fuc(a1-4)]GlcNAc(b1-2)Man(a1-3)]Man(b1-4)GlcNAc(b1-4)GlcNAc
Outline: as §1

[17] = biological target: Fuc(a1-2)Gal(b1-3)[Fuc(a1-4)]GlcNAc(b1-2)Man(a1-3)[Fuc(a1-2)Gal(b1-3)[Fuc(a1-4)]GlcNAc(b1-2)Man(a1-6)]Man(b1-4)GlcNAc(b1-4)[Fuc(a1-6)]GlcNAc(b1-4)[Fuc(a1-6)]GlcNAc
Outline: as §1

[18] = biological target: Fuc(a1-2)Gal(b1-3)[Fuc(a1-4)]GlcNAc(b1-3)[Fuc(a1-3)[Gal(b1-4)]GlcNAc(b1-6)]Gal(b1-4)Glc
Outline: as §1

[19] = biological target: Fuc(a1-2)Gal(b1-3)[Fuc(a1-4)]GlcNAc(b1-3)[Gal(b1-4)GlcNAc(b1-6)]Gal(b1-4)Glc
Outline: as §1

[20] = biological target: Fuc(a1-2)Gal(b1-4)Fuc(a1-3)]GlcNAc(b1-2)Man(a1-3)[Fuc(a1-2)Gal(b1-4)[Fuc(a1-3)]GlcNAc(b1-2)Man(a1-6)]Man(b1-4)GlcNAc(b1-4)GlcNAc
Outline: as §1

Fuc(a1-2)Gal(b1-4)Glc = biological target: Fuc(a1-2)Gal(b1-4)Glc
Outline: as §1

Fuc(a1-2)Gal(b1-4)Glc6S = biological target: Fuc(a1-2)Gal(b1-4)Glc6S
Outline: as §1

Fuc(a1-2)Gal(b1-4)GlcNAc = biological target: Fuc(a1-2)Gal(b1-4)GlcNAc
Outline: as §1

[21] = biological target: Fuc(a1-2)Gal(b1-4)GlcNAc(b1-2)Man
Outline: as §1

[22] = biological target: Fuc(a1-2)Gal(b1-4)GlcNAc(b1-2)Man(a1-3)[Fuc(a1-2)Gal(b1-4)GlcNAc(b1-2)Man(a1-6)]Man(b1-4)GlcNAc(b1-4)GlcNAc
Outline: as §1

[23] = biological target: Fuc(a1-2)Gal(b1-4)GlcNAc(b1-2)Man(a1-3)[Fuc(a1-2)Gal(b1-4)GlcNAc(b1-2)Man(a1-6)]Man(b1-4)GlcNAc(b1-4)[Fuc(a1-6)]GlcNAc
Outline: as §1

[24] = biological target: Fuc(a1-2)Gal(b1-4)GlcNAc(b1-2)[Fuc(a1-2)Gal(b1-4)GlcNAc(b1-4)]Man(a1-3)[Fuc(a1-2)Gal(b1-4)GlcNAc(b1-2)Man(a1-6)]Man(b1-4)GlcNAc(b1-4)GlcNAc
Outline: as §1

B1: UEA-I (Ulex europaeus), P22972 (protein)
chain: SDDLSFKFKNFSQNGKDLSFQGDASVIETGVLQLNKVGNNLPDETGGIARYIAPIHIWNCNTGEVASFITSFSFFMETSANPKAATDGLTFFLAPPDSPLRRAGGYFGLFEDTKDNDSSYQTVAVEFDTIGSPVNFDDPGFPHIGIDVNRVKSINAERWNKRYGLNNVANVEIIYEASSKTLTASLTYPSDQTSISVTSIVDLKEILPEWVSVGFSGGTYIGRQATHEVLNWYFTSNLINTNS
glycan array binding signal (z-score) (Fuc(a1-2)Gal): 1.09 | glycan array binding signal (z-score) (Fuc(a1-2)Gal(b1-3)GalNAc): -0.304 | glycan array binding signal (z-score) [1]: -0.168 | glycan array binding signal (z-score) [2]: -0.189 | glycan array binding signal (z-score) [3]: -0.118 | glycan array binding signal (z-score) [4]: -0.224 | glycan array binding signal (z-score) [5]: -0.217 | glycan array binding signal (z-score) [6]: -0.215 | glycan array binding signal (z-score) (Fuc(a1-2)Gal(b1-3)GlcNAc): -0.129 | glycan array binding signal (z-score) [7]: -0.085 | glycan array binding signal (z-score) [8]: -0.153 | glycan array binding signal (z-score) [9]: -0.217 | glycan array binding signal (z-score) [10]: -0.186 | glycan array binding signal (z-score) [11]: -0.161 | glycan array binding signal (z-score) [12]: -0.092 | glycan array binding signal (z-score) [13]: -0.101 | glycan array binding signal (z-score) [14]: -0.071 | glycan array binding signal (z-score) [15]: -0.22 | glycan array binding signal (z-score) [16]: -0.072 | glycan array binding signal (z-score) [17]: -0.186 | glycan array binding signal (z-score) [18]: -0.125 | glycan array binding signal (z-score) [19]: -0.187 | glycan array binding signal (z-score) [20]: -0.131 | glycan array binding signal (z-score) (Fuc(a1-2)Gal(b1-4)Glc): 4.65 | glycan array binding signal (z-score) (Fuc(a1-2)Gal(b1-4)Glc6S): 8.87 | glycan array binding signal (z-score) (Fuc(a1-2)Gal(b1-4)GlcNAc): 5.04 | glycan array binding signal (z-score) [21]: -0.188 | glycan array binding signal (z-score) [22]: 1.85 | glycan array binding signal (z-score) [23]: 0.643 | glycan array binding signal (z-score) [24]: 1.41
